Experimental data as given in article PMC7360973, “Feedback regulation of heat shock factor 1 (Hsf1) activity by Hsp70‐mediated trimer unzipping and dissociation from DNA” (The EMBO Journal, 2020).

Target: T1, Human heat shock transcription factor 1 (Hsf1), wild type (human, UniProt Q00613 1-529)
T1 construct: heat shock transcription factor 1 (Hsf1), human, wild type; Purified both as a monomer and as a trimer; One molecule is used for both states; the assay's format tells which was used; also called Hsf1wt; wt; source: E. coli BL21 (DE3) Rosetta, purified (Ni-IDA, Ulp1 cleavage, Superdex 200); monomeric and trimeric fractions collected separately; not shown: His6-SUMO, N-terminal, cleaved
T1 sequence (looked up): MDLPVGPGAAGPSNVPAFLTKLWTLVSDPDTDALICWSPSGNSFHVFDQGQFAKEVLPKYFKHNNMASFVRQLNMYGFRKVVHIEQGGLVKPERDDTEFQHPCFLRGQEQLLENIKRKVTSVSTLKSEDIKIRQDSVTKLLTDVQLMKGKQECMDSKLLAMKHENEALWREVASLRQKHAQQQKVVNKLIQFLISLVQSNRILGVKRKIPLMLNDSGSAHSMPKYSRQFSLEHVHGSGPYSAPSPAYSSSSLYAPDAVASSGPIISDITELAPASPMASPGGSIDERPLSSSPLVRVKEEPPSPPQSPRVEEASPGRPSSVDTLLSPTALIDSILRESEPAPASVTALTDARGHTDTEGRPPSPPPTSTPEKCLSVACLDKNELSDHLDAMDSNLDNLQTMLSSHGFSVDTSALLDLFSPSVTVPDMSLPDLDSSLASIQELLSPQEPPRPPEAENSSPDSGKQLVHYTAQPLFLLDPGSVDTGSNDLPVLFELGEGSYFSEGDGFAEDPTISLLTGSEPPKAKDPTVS
Experiment: HDX-MS; 6 μM Hsf1 (monomer or trimer) pre-incubated 30 min at 25°C with 12 μM Hsc70 or 9 μM DnaJB1 in 25 mM HEPES/NaOH pH 7.5, 150 mM NaCl, 10% glycerol, 2 mM DTT; diluted 10-fold in D2O buffer, 30 s at 25°C; online pepsin digestion
Conditions: both partners purified

binding result: binds
B1: Human DnaJB1/Hdj1 (natural protein)
chain: MGKDYYQTLGLARGASDEEIKRAYRRQALRYHPDKNKEPGAEEKFKEIAEAYDVLSDPRKREIFDRYGEEGLKGSGPSGGSGGGANGTSFSYTFHGDPHAMFAEFFGGRNPFDTFFGQRNGEEGMDIDDPFSGFPMGMGGFTNVNFGRSRSAQEPARKKQ[about 150 residues not spelt out]PERIPQTSRTVLEQVLPI
notes: DnaJB1/Hdj1/Hsp40, J-domain co-chaperone, human, wild type; also called Hsp40; source: E. coli BL21 (DE3) Rosetta, purified (Ni-IDA, Ulp1 cleavage, reverse Ni-IDA, Superdex 200)
